Experimental data as given in the RNAGym collection of RNA variant scans (doi:10.1093/nar/gkz1192).
The source gives no read counts; variants with many changes may rest on few reads.

B1: CPEB3 Ribozyme (parent)
chain: UAACAGGGGGCCACAGCAGAAGCGUUCACGUCGCAGCCCCUGUCAGAUUCUGGUGAAUCUGCGAAUUCUGCUGUAUAUCUC

Variants of: B1
Experiment: self-cleavage, relative activity (ratio to wild type); higher = more cleavage; in vitro, sequencing
Outline: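 Libraries of CPEB3 self-cleaving ribozyme mutants came from rounds of error-prone PCR and carried barcodes, which DNA sequencing matched to variants. In vitro transcription used T7 RNA polymerase at 37°C for 5 hours, with a further 15 min in DNase I before EDTA stopped the reaction; the ribozymes cleaved during both steps. The RNA was reverse transcribed with template switching and sequenced on Illumina. Relative activity is the cleaved/total read fraction of a variant divided by that of the unmutated ribozyme, averaged over three batches with at least 5 reads.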
C11U A18G C27G U51C showed a self-cleavage of 0.16. C11G A13U U48C showed a self-cleavage of 0.56. In the case of C11U U43C U69A U78C, the self-cleavage is reported as 0.07. C11G A28G C40U U41C G53A U54C A65G showed a self-cleavage of 0.03. In the case of C11G A13U A35G U43C U69C, the self-cleavage is reported as 0.08. C11G U48A C71G showed a self-cleavage of 0.19. Work on C11U A35G U51G yielded a self-cleavage of 1.17. C11G C38U U49C showed a self-cleavage of 0.08. Variant C11G U26C U41A has a self-cleavage of 0.06. C11U A13U C62U U67C gave a self-cleavage of 0.13. In the case of C11U U25C A35U U60A, the self-cleavage is reported as 0.06. With C11U C62A U76C U78C the self-cleavage was 0. For C11U U41A U49C, the self-cleavage was 0.07. For C11G U41C A57G U66C U78C, the self-cleavage was 0.05. With C11U A35G A65G G73U the self-cleavage was 1.26. In the case of C11U A13G U25C, the self-cleavage is reported as 0.27. Work on C11U G30U C37U U48C U60C U66C U67C yielded a self-cleavage of 0.2. Work on C11G A35U A45G U78C yielded a self-cleavage of 0.08. Work on C11U G16U U31C yielded a self-cleavage of 0.04. Variant C11G U67G A75U has a self-cleavage of 0.09. In the case of C12A A13U U48G U51C U78A, the self-cleavage is reported as 0.62. In the case of C11U U31C U41C A47G U51C U60C, the self-cleavage is reported as 0.15. C12A A13G A15C C23U U69C U72C U78C showed a self-cleavage of 0.06. C11G U26A U80A gave a self-cleavage of 0.19. Work on C11G A18U U26C U41C U49A A56G yielded a self-cleavage of 0.04. C11G C38U A64U A65G showed a self-cleavage of 0.07. Work on C12A A13G A21G U26A A28G U51G G61A yielded a self-cleavage of 0.04. Variant C11U C17U C32A has a self-cleavage of 0.08. C11G A18G C32A U78C showed a self-cleavage of 0.08. C11G C27U A45G U60A gave a self-cleavage of 0.18. In the case of C11G U31C A56G U60C U72A, the self-cleavage is reported as 0.09. For C11G U26C U41G U49C U54A U67A, the self-cleavage was 0.05. With C11U A18G U66C the self-cleavage was 0.08. Work on C11G A15G A47G yielded a self-cleavage of 0.51. C11G C14U C32U U58C U67A gave a self-cleavage of 0.07. C11U G33A A57G A65G gave a self-cleavage of 0.14. Variant C11U A15G A21G U48C has a self-cleavage of 0.2. In the case of C11G U25C C34G C50U, the self-cleavage is reported as 0.07. For C11G U26A U48C U69G U72A, the self-cleavage was 0.04. Work on C11G C34A U80A yielded a self-cleavage of 0.06. Variant C11U U26C C40G U41C C59U has a self-cleavage of 0.05. With C11U U51A U54C A56G the self-cleavage was 0.11. For C11U A18G A35U U66A, the self-cleavage was 0.17. With C11U G30U C37U U48C U66C the self-cleavage was 0.18. With C11U A18G U25A the self-cleavage was 0.34. Variant C11U A21G U25G U26A U49A A77G has a self-cleavage of 0.2. C11G U26A C39A U49G U67G gave a self-cleavage of 0.03. In the case of C11G A13G U31C C32U A56G, the self-cleavage is reported as 0.04. Work on C11U C40A G46U A56G yielded a self-cleavage of 0.16. For C11G U25A C38A C40U G70C U72A U80C, the self-cleavage was 0.02. C11U A45G A57G gave a self-cleavage of 0.23. In the case of C11G A21G U72C, the self-cleavage is reported as 0.3. C11G U54C U58C U67C gave a self-cleavage of 0.08. With C11G C44A U78C the self-cleavage was 0.35. Work on C11G A28G C81U yielded a self-cleavage of 0.19. C12A A13G A15G U41C U51A U67C U74A gave a self-cleavage of 0.11. For C11G A13G U54C, the self-cleavage was 0.54. With C11U A57U U80C the self-cleavage was 0.13. C11U U31A A35G A45G U54C showed a self-cleavage of 0.9. For C11U A18C A56G, the self-cleavage was 0.24. Variant C11U U25C U26C has a self-cleavage of 0.45. In the case of C11G U31C U41A A75G, the self-cleavage is reported as 0.04. For C11U U25C A28U U54A A75G, the self-cleavage was 0.03. For C11G A18U U31A A57G A75G, the self-cleavage was 0.06. Work on C11A U43C A57G yielded a self-cleavage of 0.29. In the case of C11G U26A C40G U41C A65G, the self-cleavage is reported as 0.06. C11U A65G U80C showed a self-cleavage of 0.11. In the case of C11G A15G C23G U26C A45C U49A A56G, the self-cleavage is reported as 0.25. In the case of C11U U48C A56G A65U, the self-cleavage is reported as 0.04. C11U A28G C79A showed a self-cleavage of 0.26. C11U A13U A64G showed a self-cleavage of 0.38. C11U A35U U43C showed a self-cleavage of 0.46. Variant C11G A13G U78A C81U has a self-cleavage of 0.15. In the case of C11G C14U C37G, the self-cleavage is reported as 0.13. Variant C11G A20U C39A U49A U51C has a self-cleavage of 0.2. Variant C11G A13C C14A C38A C40U A45U U66A has a self-cleavage of 0. C11U A13U U31G A65U gave a self-cleavage of 0.04. Variant C11U U26A A47G has a self-cleavage of 0.26. Variant C11U A15U A28U U43C A64G has a self-cleavage of 0.14. Work on C11A U54G U78C yielded a self-cleavage of 0.06. Variant C11G U67G U72C has a self-cleavage of 0.17. C11G A15U U43C A45G showed a self-cleavage of 0.43. C11U A15G C32A U48C U51C U78C showed a self-cleavage of 0.09. With C11U A45U A47U U49A U80A the self-cleavage was 0.18. In the case of C11G U26A U31C A56U U67A U80C, the self-cleavage is reported as 0.05. For C11U U49C A56G U69A A75G, the self-cleavage was 0.15. Work on C11G U26A U58C U72C yielded a self-cleavage of 0.09. C11G A18C A21G A57G A64G gave a self-cleavage of 0.06. With C11U A28U A47G G53A G63A the self-cleavage was 0.09. Variant C11G U31C A35G U67A has a self-cleavage of 0.34. Variant C11U U41A U48C U54C A65G has a self-cleavage of 0.13. Work on C11U A13G A35G A45G U80C yielded a self-cleavage of 0.7. Work on C11U C17U A20U U31C C39A U51C yielded a self-cleavage of 0.04. In the case of C11U A45U U76C, the self-cleavage is reported as 0.39. Work on C11U A18G A21G C59A U66C yielded a self-cleavage of 0.04. C11G U51C U80C gave a self-cleavage of 0.5. C11G A35G A57G A77G gave a self-cleavage of 0.26. For C11G A15U G52U U78C U80C, the self-cleavage was 0.31. Variant C11U U26A G36A U51C has a self-cleavage of 0.29. C11G C32U C71U U74C gave a self-cleavage of 0.04. With C11A U43G G63A A75U the self-cleavage was 0.09. C11G A13G U25C gave a self-cleavage of 0.33. C11G A13G U43C A57G U76G gave a self-cleavage of 0.24. C11G U49C A56G U67A gave a self-cleavage of 0.17. Variant C11G C23G A28G U49C U78C has a self-cleavage of 0.05. Work on C11U A18G G24C U43C U72C yielded a self-cleavage of 0.07. With C11U C27G A28G C32U A45G U49C U51A the self-cleavage was 0.01. C11U A15G G42A A64U U72C U80A gave a self-cleavage of 0.05. C11G U26C U49C U67A U72C U80C showed a self-cleavage of 0.03. Work on C11G A18G A21U A45U C59A yielded a self-cleavage of 0.17. In the case of C11U U60C U66A U69C A77U, the self-cleavage is reported as 0.13. For C11U G16A C39U U41A U48C A65G U67G, the self-cleavage was 0.07. Work on C11G A18G A28G U43G yielded a self-cleavage of 0.06. With C11G U41A G46A A47G U69A the self-cleavage was 0.21. C11G G30U C38A showed a self-cleavage of 0.05. Variant C11U A13G A20G U26A C39A U69A has a self-cleavage of 0.04. In the case of C11G C17U U48C U51C A56G, the self-cleavage is reported as 0.06. Variant C11G A28G A35U U41A has a self-cleavage of 0.26. C11U U26C A75G U80A gave a self-cleavage of 0.16. With C11U C38U U67A the self-cleavage was 0.07. Work on C11U A15U U41C yielded a self-cleavage of 0.17. With C11U A13G A15G U60C U78C the self-cleavage was 0.04. With C11U C40U A45G the self-cleavage was 0.11. In the case of C12A A13G C29G, the self-cleavage is reported as 0.08. In the case of C11U A28G U41C U66C, the self-cleavage is reported as 0.07. C11U C12A A13G U26C A35U A45G U78C gave a self-cleavage of 0.04. C11G A20U A28G U41C gave a self-cleavage of 0.04. C11U U25C U49A gave a self-cleavage of 0.05. C11G A21G U41C A65G gave a self-cleavage of 0.07. C11U A57G G63A showed a self-cleavage of 0.27. For C11G C14U G19A U25G U78A, the self-cleavage was 0.11. C11G U25C U48C gave a self-cleavage of 0.25. C12A A13G G19A U26A A57G U69A U72C showed a self-cleavage of 0.03. For C11G C50A U67C, the self-cleavage was 0.23. For C11G G24U G30A G33A U49C A65G U80C, the self-cleavage was 0.09. With C11U U41G U54A the self-cleavage was 0.07. With C11U A28G U48C G63A the self-cleavage was 0.06. For C11U U49A U60A U74C, the self-cleavage was 0.06. With C11G A21G U26A A56G A57U the self-cleavage was 0.36. Work on C11G A28G U72C U80A yielded a self-cleavage of 0.75. In the case of C12A A13U A15G C39A A56G U60A, the self-cleavage is reported as 0.22. Variant C11U U25C A35U U74A has a self-cleavage of 0.04. For C11U U26C U69A, the self-cleavage was 0.28. C11U A21G C23U U66C G70U gave a self-cleavage of 0.04. Work on C11G A15U U43A yielded a self-cleavage of 0.52. In the case of C11G G46A A47G U48C, the self-cleavage is reported as 0.29. Work on C11G U41C A56U U69A U74C C81A yielded a self-cleavage of 0.11. Work on C11G U26C A35G U78C yielded a self-cleavage of 0.27. In the case of C12A A13G C27G C62G U74C, the self-cleavage is reported as 0.06. Variant C11U U41A A64U U78A has a self-cleavage of 0.02. Work on C11U C17U U67C G73A yielded a self-cleavage of 0.04. Work on C11G C37U C40A A64G A77G yielded a self-cleavage of 0.04. For C11U A15G A21G U51A G63C U72A U80C, the self-cleavage was 0.1. With C11G A20C C23U G63A A64G A77U the self-cleavage was 0.04. Variant C11A U48C U66C U72C U74C A75U U78C has a self-cleavage of 0.05. With C11G U51A A57G the self-cleavage was 0.25. In the case of C11G A18G U48C A57G U58C, the self-cleavage is reported as 0.03. In the case of C11G A13U U25C U80C, the self-cleavage is reported as 0.06. C11U A28U A47G showed a self-cleavage of 0.38. Variant C11G A18G A21U A64G U78C has a self-cleavage of 0.07. C11G A13G U41A U74C gave a self-cleavage of 0.07. C11G A35U U60C U78C showed a self-cleavage of 0.23. For C11G A18G U26C A45G G70A, the self-cleavage was 0.06. For C11U C12U U43C A57G U80C, the self-cleavage was 0.43. With C11U A28G A56G U67C the self-cleavage was 0.07. Variant C11G A20G A35U U69A has a self-cleavage of 0.16. C11U U49C U69C showed a self-cleavage of 0.08.
